The campaign covered roughly 150,000 compounds. About 540 (0.36%) showed an effect of 50% or more. The list shows a part of the results.

The subject of the assay is Plasmodium falciparum. Briefly: Primary screen in NF54 nanoGlo assay, in single point, at 2uM, 72h; a lower Z score goes with more inhibition. The conditions noted are these: timepoint 72 hour. In kind it is functional, Erythrocyte.
As a reminder, the % Inhibition is the relative decrease from the control value, in per cent. On to `CCc1nocc1CN1CCn2cncc2C1`, for which the “% Inhibition” value was found to be 2% and the Z score is -0.23.

On to `CC(C)c1nc(CNC(=O)c2ccc(N[C@@H](C)Cn3cncn3)nc2)no1`, for which the “% Inhibition” value is 4% and the Z score is -0.65.

As to `CC(C)(C)OC(=O)N1CCC[C@@H]1CCC(=O)NCCOc1cccc(F)c1`, the “% Inhibition” value is given as -3% and the Z score was 0.42.

For `Cc1cc(=O)[nH]cc1C(=O)Nc1ccc(N2CCOC[C@@H]2C)cc1`, the “% Inhibition” value was 8% and the Z score is recorded as -0.76.

As to `CCC1(CC)Oc2ccc(N[C@@H](C)c3cncc(F)c3)cc2O1`, the “% Inhibition” value is given as -12% and the Z score is on record as 1.92.

`C[C@@H](Cc1ccc(OC(F)(F)F)cc1)C(=O)NCc1cnn(C)n1`: the “% Inhibition” value was determined as 4% and the Z score was -0.51.

With `CC(C)(C)OC(=O)NC1CCCCCCC1C(=O)O` (configuration not stated), the “% Inhibition” value is 1% and the Z score is given as -0.06.

For `COc1ccc([C@@H](C)NC(=O)N(CCO)Cc2nccn2C)cc1`, the “% Inhibition” value was -13% and the Z score was 1.17.

As to `Cc1cc(C(=O)N2CCOC[C@H](Oc3ccc(S(C)(=O)=O)cc3)C2)no1`, the “% Inhibition” value is on record as 11% and the Z score is on record as -1.33.

For the molecule `CCCCC(=O)Nc1ccc(Br)cn1`, the “% Inhibition” value is -6% and the Z score is 0.77.

Turning to `Cc1ccc(N2CN(CC(=O)Nc3ccc(C)c(F)c3)S(=O)(=O)c3cccnc32)cc1`, the “% Inhibition” value is given as -23% and the Z score came out at 2.48.

For the molecule `CC[C@H](C(=O)NCc1ccc(O)c(OC)c1)C1(O)CCCCC1`, the “% Inhibition” value is -12% and the Z score is on record as 1.23.

Take `CC(=O)N[C@@H]1C[C@H](CC(C)C)O[C@H](c2c(C)n(C)n(-c3ccccc3)c2=O)C1`: the “% Inhibition” value is reported as -2% and the Z score is listed as 0.33.

Consider `OC1CCN(CCCNc2ncnc3c2Cc2ccccc2OC3)CC1`, for which the “% Inhibition” value came to 10% and the Z score is on record as -1.34.

`O=C(C1CC1)[C@@H]1CN(C(=O)Cc2cccc(Br)c2)CCO1`: the “% Inhibition” value is -4% and the Z score came to 0.49.

On to `C[C@@]1(C(=O)NC2CCCCCC2)Cn2c(ccc2-c2ccco2)C(=O)N1Cc1cccc(Cl)c1`, for which the “% Inhibition” value is listed as -19% and the Z score is 1.83.

Turning to `COC(=O)C1(NC(=O)Nc2cccc(Oc3c(F)c(F)c(F)c(F)c3F)c2)CCCCC1`, the “% Inhibition” value is recorded as 3% and the Z score is -0.43.

With `CC(C)c1cc(C(=O)N(C)Cc2ccc(-n3cccn3)cc2)[nH]n1`, the “% Inhibition” value is -1% and the Z score turned out to be 0.24.

Turning to `C[C@@H](C(=O)N(CCC#N)c1ccccc1)n1cc(-c2cnn(C)c2)nn1`, the “% Inhibition” value was -1% and the Z score was found to be 0.12.

As for `FC(F)(F)c1cccc([C@H]2CCN(Cc3nnc(C4CC4)o3)C2)c1`, the “% Inhibition” value stood at 3% and the Z score is given as -0.28.

For `Cc1ccccc1[C@H](CNC(=O)N1CC(c2ccccn2)C1)N1CCC(C)CC1`, the “% Inhibition” value is recorded as -13% and the Z score is listed as 1.19.

On to `O=C(Nc1ccc(F)cc1F)N1C[C@@H](F)[C@@H](OCc2nc3ccccc3o2)C1`, for which the “% Inhibition” value is -3% and the Z score was 0.42.

Turning to `O=C(CCC1CCCC1)N1CC(N(Cc2cccnc2)C(=O)Nc2ccccc2)C1`, the “% Inhibition” value is -3% and the Z score came to 0.51.

In the case of `CCN(CC)c1nc(Nc2ccccc2C)nc(Nc2cc(C)ccc2C)n1`, the “% Inhibition” value is on record as -21% and the Z score worked out at 2.23.

For `CCCCN(C)C(=O)C1CCN(c2nnc(-c3ccc(OC)cc3)o2)CC1`, the “% Inhibition” value is reported as -8% and the Z score is on record as 1.19.

As to `CN1CCNC(=O)C12CCN(c1cnc3ccccc3n1)CC2`, the “% Inhibition” value is 3% and the Z score is recorded as -0.45.

Turning to `Cc1cc(NC(=O)C(=O)N2CCc3c(F)cc(F)cc32)nn1C`, the “% Inhibition” value is -12% and the Z score is 1.54.

As to `Cc1nn(C)c(C)c1S(=O)(=O)N1CCC[C@@]2(C1)C(=O)Nc1ccccc12`, the “% Inhibition” value came to 9% and the Z score is -1.65.

Consider `O=S1(=O)CCCN1CCn1nccc1-c1ccc(F)c(Cl)c1`, for which the “% Inhibition” value is -14% and the Z score is 2.18.

Turning to `O=C(NCCCCN1C(=O)c2ccccc2C1=O)c1cccnc1`, the “% Inhibition” value is recorded as -15% and the Z score amounted to 2.65.

With `CN(C(=O)c1cnn(-c2ccccc2)c1)C1C2CCOC2C1(C)C` (configuration not stated), the “% Inhibition” value was -3% and the Z score is 0.55.

As for `CCN1C[C@@H](c2ccccc2)CC2(CCN(S(=O)(=O)N(C)C)CC2)C1`, the “% Inhibition” value was -1% and the Z score is 0.15.

With `COc1ccc(-c2nn3ccn(CC(=O)NC4CCCCC4)c(=O)c3c2CO)cc1`, the “% Inhibition” value is -11% and the Z score amounted to 1.29.

For the molecule `COC(=O)c1ccc(CC(=O)NC[C@H]2CCCOC2)cc1`, the “% Inhibition” value was 2% and the Z score is recorded as -0.37.

Take `CCNC(=O)c1ccc(COc2ccc3c(c2)[C@H](c2cccc(F)c2)N(C(=O)C(C)C)CC3)o1`: the “% Inhibition” value is recorded as -5% and the Z score is on record as 0.5.

As to `CC(C)=CCC[C@@]1(C)CCC(=O)N(CCc2nc3ccccc3c(=O)[nH]2)C1`, the “% Inhibition” value is listed as 6% and the Z score is given as -0.83.

In the case of `COc1ccccc1-c1c(C#N)c(N)nc2c1COC2C` (configuration not stated), the “% Inhibition” value amounted to 4% and the Z score is -0.78.

Regarding `CO[C@@H](CNC(=O)c1cn2c(n1)CNCC2)c1cccs1`, the “% Inhibition” value is -9% and the Z score turned out to be 1.4.

With `O[C@H]1[C@H](NCc2ccccn2)[C@H]2CO[C@H](O2)[C@@H]1N1CCC(Cc2ccccc2)CC1`, the “% Inhibition” value was -1% and the Z score is 0.11.

On to `Cc1ocnc1CNC(=O)N1CC(F)C1`, for which the “% Inhibition” value is recorded as -16% and the Z score was 1.7.

With `Cc1ccccc1CNc1ccnn1C(C)C`, the “% Inhibition” value was -14% and the Z score came to 1.97.

(Values after ChEMBL document CHEMBL4888484, “Replenishing the malaria drug discovery pipeline: Screening and hit evaluation of the MMV Hit Generation Library 1 (HGL1) against asexual blood stage Plasmodium falciparum ,using a nano luciferase reporter read-out” (2022).)
